Data as given in article PMC9911399, “Two distinct binding modes provide the RNA-binding protein RbFox with extraordinary sequence specificity”.
Positions count from the first letter of the chain named. The list shows a part of the results.

T1: RBFOX1 RRM RbFoxmut (Fox-RRM*) (Homo sapiens, UniProt Q9NWB1 109-208, R118D;E147R;N151S;E152T)
T1 sequence: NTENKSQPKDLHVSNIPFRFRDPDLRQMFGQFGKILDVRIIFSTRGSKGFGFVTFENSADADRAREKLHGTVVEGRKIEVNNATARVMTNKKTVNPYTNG

B1: CGUCCGG (DNA:RNA)
RNA: GGGAGACCGGAAUUCAGAUUGUCCCGUCCGGUUAAAUCCCGUCGUAGCCACCA
DNA 1: CAATCTGAATTCCGGTCTCCC
DNA 2: TGGTGGCTACGACGGGATT
B2: UACAACG (DNA:RNA)
RNA: B1 RNA with C25U, G26A, U27C, C28A, C29A, G30C
DNA 1: CAATCTGAATTCCGGTCTCCC
DNA 2: TGGTGGCTACGACGGGATT
B3: AACUUGU (DNA:RNA)
RNA: B1 RNA with C25A, G26A, U27C, C28U, C29U, G31U
DNA 1: CAATCTGAATTCCGGTCTCCC
DNA 2: TGGTGGCTACGACGGGATT
B4: GUCCAAU (DNA:RNA)
RNA: B1 RNA with C25G, G26U, U27C, C29A, G30A, G31U
DNA 1: CAATCTGAATTCCGGTCTCCC
DNA 2: TGGTGGCTACGACGGGATT
B5: CUACUCU (DNA:RNA)
RNA: B1 RNA with G26U, U27A, C29U, G30C, G31U
DNA 1: CAATCTGAATTCCGGTCTCCC
DNA 2: TGGTGGCTACGACGGGATT
B6: GUGUUUC (DNA:RNA)
RNA: GGGAGACCGGAAUUCAGAUUGUCCGUGUUUCUUAAAUCCCGUCGUAGCCACCA
DNA 1: CAATCTGAATTCCGGTCTCCC
DNA 2: TGGTGGCTACGACGGGATT
B7: CAGAUCC (DNA:RNA)
RNA: B6 RNA with G25C, U26A, U28A, U30C
DNA 1: CAATCTGAATTCCGGTCTCCC
DNA 2: TGGTGGCTACGACGGGATT
B8: CCAUUGC (DNA:RNA)
RNA: B6 RNA with G25C, U26C, G27A, U30G
DNA 1: CAATCTGAATTCCGGTCTCCC
DNA 2: TGGTGGCTACGACGGGATT
B9: UGGGUCC (DNA:RNA)
RNA: B6 RNA with G25U, U26G, U28G, U30C
DNA 1: CAATCTGAATTCCGGTCTCCC
DNA 2: TGGTGGCTACGACGGGATT
B10: GCCGUCG (DNA:RNA)
RNA: B6 RNA with U26C, G27C, U28G, U30C, C31G
DNA 1: CAATCTGAATTCCGGTCTCCC
DNA 2: TGGTGGCTACGACGGGATT
B11: UGAUAAC (DNA:RNA)
RNA: B6 RNA with G25U, U26G, G27A, U29A, U30A
DNA 1: CAATCTGAATTCCGGTCTCCC
DNA 2: TGGTGGCTACGACGGGATT
B12: AGCUAGC (DNA:RNA)
RNA: B1 RNA with C25A, U27C, C28U, C29A, G31C
DNA 1: CAATCTGAATTCCGGTCTCCC
DNA 2: TGGTGGCTACGACGGGATT
B13: UCCACUG (DNA:RNA)
RNA: B1 RNA with C25U, G26C, U27C, C28A, G30U
DNA 1: CAATCTGAATTCCGGTCTCCC
DNA 2: TGGTGGCTACGACGGGATT
B14: CCUGCUA (DNA:RNA)
RNA: B1 RNA with G26C, C28G, G30U, G31A
DNA 1: CAATCTGAATTCCGGTCTCCC
DNA 2: TGGTGGCTACGACGGGATT
B15: CUUGUCG (DNA:RNA)
RNA: B1 RNA with G26U, C28G, C29U, G30C
DNA 1: CAATCTGAATTCCGGTCTCCC
DNA 2: TGGTGGCTACGACGGGATT
B16: GCCUCAC (DNA:RNA)
RNA: B6 RNA with U26C, G27C, U29C, U30A
DNA 1: CAATCTGAATTCCGGTCTCCC
DNA 2: TGGTGGCTACGACGGGATT
B17: GCUUCAG (DNA:RNA)
RNA: B1 RNA with C25G, G26C, C28U, G30A
DNA 1: CAATCTGAATTCCGGTCTCCC
DNA 2: TGGTGGCTACGACGGGATT
B18: ACUCAUC (DNA:RNA)
RNA: B1 RNA with C25A, G26C, C29A, G30U, G31C
DNA 1: CAATCTGAATTCCGGTCTCCC
DNA 2: TGGTGGCTACGACGGGATT
B19: UGAAACG (DNA:RNA)
RNA: B1 RNA with C25U, U27A, C28A, C29A, G30C
DNA 1: CAATCTGAATTCCGGTCTCCC
DNA 2: TGGTGGCTACGACGGGATT
B20: CUACUCA (DNA:RNA)
RNA: B1 RNA with G26U, U27A, C29U, G30C, G31A
DNA 1: CAATCTGAATTCCGGTCTCCC
DNA 2: TGGTGGCTACGACGGGATT
B21: GUACGAA (DNA:RNA)
RNA: B6 RNA with G27A, U28C, U29G, U30A, C31A
DNA 1: CAATCTGAATTCCGGTCTCCC
DNA 2: TGGTGGCTACGACGGGATT
B22: AACUUGC (DNA:RNA)
RNA: B6 RNA with G25A, U26A, G27C, U30G
DNA 1: CAATCTGAATTCCGGTCTCCC
DNA 2: TGGTGGCTACGACGGGATT
B23: CAGACAA (DNA:RNA)
RNA: B1 RNA with G26A, U27G, C28A, G30A, G31A
DNA 1: CAATCTGAATTCCGGTCTCCC
DNA 2: TGGTGGCTACGACGGGATT
B24: AGCACUU (DNA:RNA)
RNA: B1 RNA with C25A, U27C, C28A, G30U, G31U
DNA 1: CAATCTGAATTCCGGTCTCCC
DNA 2: TGGTGGCTACGACGGGATT
B25: ACUACAU (DNA:RNA)
RNA: B1 RNA with C25A, G26C, C28A, G30A, G31U
DNA 1: CAATCTGAATTCCGGTCTCCC
DNA 2: TGGTGGCTACGACGGGATT
B26: CUAGAGG (DNA:RNA)
RNA: B1 RNA with G26U, U27A, C28G, C29A
DNA 1: CAATCTGAATTCCGGTCTCCC
DNA 2: TGGTGGCTACGACGGGATT
B27: CGGAAGC (DNA:RNA)
RNA: B1 RNA with U27G, C28A, C29A, G31C
DNA 1: CAATCTGAATTCCGGTCTCCC
DNA 2: TGGTGGCTACGACGGGATT
B28: UAAGCCU (DNA:RNA)
RNA: B1 RNA with C25U, G26A, U27A, C28G, G30C, G31U
DNA 1: CAATCTGAATTCCGGTCTCCC
DNA 2: TGGTGGCTACGACGGGATT
B29: AGUAGUA (DNA:RNA)
RNA: B1 RNA with C25A, C28A, C29G, G30U, G31A
DNA 1: CAATCTGAATTCCGGTCTCCC
DNA 2: TGGTGGCTACGACGGGATT
B30: GAACAGU (DNA:RNA)
RNA: B1 RNA with C25G, G26A, U27A, C29A, G31U
DNA 1: CAATCTGAATTCCGGTCTCCC
DNA 2: TGGTGGCTACGACGGGATT
B31: GGUGCCC (DNA:RNA)
RNA: B1 RNA with C25G, C28G, G30C, G31C
DNA 1: CAATCTGAATTCCGGTCTCCC
DNA 2: TGGTGGCTACGACGGGATT

Each binder was assayed against T1, RBFOX1 RRM RbFoxmut (Fox-RRM*) (assay: EMSA; HiTS-Eq, 1 nM pool, 10 min; buffer printed only for the single-RNA assays: 10 mM Tris pH 7.5, 150 mM NaCl, 3.4 mM EDTA, 0.001% NP-40, 30 C). Settings: tags: His6 N-terminal (pET28a); label: 5' 32P.
Procedure, shortened: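 A pool of RNA with 7 randomized nucleotides, 5′-radiolabelled and with DNA-annealed flanks, was equilibrated at 1 nM for 10 min in 50 µL with purified RbFox RRM, wild type or mutant, across increasing protein concentrations. Free RNA was separated by 8% native PAGE, excised, reverse-transcribed, barcoded by PCR and sequenced. Relative association constants were obtained from read-count changes of each RNA species versus the control reaction and normalised to the cognate motif.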

In order of falling binding signal:
1. B6  0.208 KA relative to UGCAUGU
2. B9  0.149 KA relative to UGCAUGU
3. B20  0.139 KA relative to UGCAUGU
4. B29  0.136 KA relative to UGCAUGU
5. B17  0.133 KA relative to UGCAUGU
6. B15  0.13 KA relative to UGCAUGU
7. B3  0.121 KA relative to UGCAUGU
8. B21  0.121 KA relative to UGCAUGU
9. B8  0.12 KA relative to UGCAUGU
10. B12  0.11 KA relative to UGCAUGU
11. B13  0.101 KA relative to UGCAUGU
12. B14  0.0988 KA relative to UGCAUGU
13. B25  0.094 KA relative to UGCAUGU
14. B28  0.0897 KA relative to UGCAUGU
15. B19  0.0885 KA relative to UGCAUGU
16. B22  0.0864 KA relative to UGCAUGU
17. B10  0.0811 KA relative to UGCAUGU
18. B16  0.0785 KA relative to UGCAUGU
19. B24  0.0746 KA relative to UGCAUGU
20. B30  0.0727 KA relative to UGCAUGU
21. B26  0.0724 KA relative to UGCAUGU
22. B31  0.0712 KA relative to UGCAUGU
23. B7  0.0703 KA relative to UGCAUGU
24. B18  0.069 KA relative to UGCAUGU
25. B5  0.0641 KA relative to UGCAUGU
26. B4  0.064 KA relative to UGCAUGU
27. B2  0.0633 KA relative to UGCAUGU
28. B11  0.0615 KA relative to UGCAUGU
29. B1  0.0535 KA relative to UGCAUGU
30. B27  0.0533 KA relative to UGCAUGU
31. B23  0.0402 KA relative to UGCAUGU
